Assay results published in paper PMC4336329 (PLoS ONE, 2015).
About 14,000 (4.5%) of roughly 310,000 compounds showed an effect of 50% or more. Effects have a minus sign here. This is one part of the list.

Target: human ether-à-go-go-related gene (hERG) potassium channel (human, UniProt Q12809)
Assay: primary screen, population patch clamp on CHO cells stably expressing hERG
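Also: peak tail current of the secondary pulse compared with the same well before compound.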

Sequence of human ether-à-go-go-related gene (hERG) potassium channel (Q12809 whole entry, looked up): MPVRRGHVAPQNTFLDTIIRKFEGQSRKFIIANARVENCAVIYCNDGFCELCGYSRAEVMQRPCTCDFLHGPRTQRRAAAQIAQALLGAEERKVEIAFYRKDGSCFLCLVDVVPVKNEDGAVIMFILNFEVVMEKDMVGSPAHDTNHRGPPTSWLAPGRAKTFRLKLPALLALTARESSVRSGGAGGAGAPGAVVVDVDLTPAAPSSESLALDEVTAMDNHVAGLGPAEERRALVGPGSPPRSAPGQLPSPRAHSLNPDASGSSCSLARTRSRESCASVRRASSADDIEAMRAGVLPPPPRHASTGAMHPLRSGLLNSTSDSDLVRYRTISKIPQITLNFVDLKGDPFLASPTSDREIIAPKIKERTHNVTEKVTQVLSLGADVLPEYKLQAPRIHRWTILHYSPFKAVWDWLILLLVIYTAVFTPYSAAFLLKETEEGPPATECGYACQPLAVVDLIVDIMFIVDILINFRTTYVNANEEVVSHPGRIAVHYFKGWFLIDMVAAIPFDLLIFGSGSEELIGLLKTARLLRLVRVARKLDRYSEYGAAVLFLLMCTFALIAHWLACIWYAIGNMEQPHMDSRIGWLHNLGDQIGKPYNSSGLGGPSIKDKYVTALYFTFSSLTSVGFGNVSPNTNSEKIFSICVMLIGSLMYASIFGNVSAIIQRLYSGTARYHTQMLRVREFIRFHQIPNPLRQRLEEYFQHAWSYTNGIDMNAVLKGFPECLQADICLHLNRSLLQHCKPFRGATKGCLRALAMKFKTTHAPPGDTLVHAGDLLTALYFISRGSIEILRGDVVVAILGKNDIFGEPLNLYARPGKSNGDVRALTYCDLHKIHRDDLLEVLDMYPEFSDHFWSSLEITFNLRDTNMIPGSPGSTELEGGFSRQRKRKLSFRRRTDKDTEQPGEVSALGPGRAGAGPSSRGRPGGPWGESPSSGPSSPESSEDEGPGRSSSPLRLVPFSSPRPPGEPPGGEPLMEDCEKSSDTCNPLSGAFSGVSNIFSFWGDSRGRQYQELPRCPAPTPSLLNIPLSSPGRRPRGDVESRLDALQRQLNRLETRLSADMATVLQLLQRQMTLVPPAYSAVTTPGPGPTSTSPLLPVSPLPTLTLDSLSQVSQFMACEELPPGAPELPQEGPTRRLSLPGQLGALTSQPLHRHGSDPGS

SMILES | hERG current change (%, negative = inhibition) at 10uM [%]
CCN(CC)c1ccc(NC(=O)CCN2C(=O)c3ccccc3S2(=O)=O)c(C)c1 | 16.5
CCCc1[nH]n(-c2ccc([N+](=O)[O-])cc2)c(=O)c1C=NCCCn1ccnc1 | -76.4
CN(Cc1ccccc1)C(=O)CN1C(=O)C2C3C=CC(C3)C2C1=O (stereo not drawn) | -7.96
COc1ccc(-n2ncc3c(NCCCn4ccnc4)ncnc32)cc1 | -25.3
COc1ccc(CNC(=O)CN(C(=O)c2csnn2)c2cccc3ccccc23)cc1 | -33.9
COc1cc(OC)cc(C(=O)N2CCN(C3CCN(Cc4ccccc4)CC3)CC2)c1.O=C(O)C(=O)O | -18.1
C=CCn1c(SCC(=O)Nc2ccc(C(=O)OC(C)C)cc2)nnc1-c1cccs1 | 5.07
Cc1cccc(C)c1NC(=O)CN(C)C(=O)CC1CC2CCC1C2 (stereo not drawn) | 5.85
CC(C)[C@H](NC(=O)C1CC(=O)N(c2ccc(F)cc2)C1)C(=O)N1CCCCC1 (stereo partly drawn) | 7.29
CCCCc1ccc(NC(=O)c2ccc(NS(C)(=O)=O)cc2)cc1 | 20
S=c1[nH]nc2nnc3ccccc3n12 | 16.8
COc1ccc(OCCC(=O)Nc2nccs2)cc1 | -0.445
COc1cc(/C=N/NC(=O)c2sc3ccccc3c2Cl)ccc1OC(=O)c1ccc([N+](=O)[O-])cc1 | 12.3
O=S(=O)(c1cc(Cl)ccc1Br)N1CCOCC1 | -11.1
CC1CC(=O)Nc2ccccc2N1S(=O)(=O)c1ccc(F)cc1F (stereo not drawn) | 10
CC1=C(C(=O)OC(C)C)C(/C=C/c2ccccc2)NC(=O)N1 (stereo not drawn) | 13.1
CCCCNC(=O)c1cc(C)nn1-c1ccccc1 | 11.4
COc1ccccc1NC(=O)CSc1nc2c(sc3ccccc32)c(=O)n1CCN(C)C.Cl | 11.5
CCOc1ccccc1-n1c(SCC(=O)Nc2nccs2)nnc1-c1ccoc1C | -5.08
CCCS(=O)(=O)NCCc1cc2c(OC)ccc(OC)c2[nH]c1=O | -0.0782
Cc1ccc(CCNC(=O)C2CCN(S(=O)(=O)c3ccc4c(c3)NC(=O)C(C)S4)CC2)cc1 (stereo not drawn) | -2.94
C#CCNC(=O)c1cccn1-c1ncc(C(F)(F)F)cc1Cl | 3.43
CC1CCCCN1CCCNC(=O)C1CCN(c2nc3ccccc3o2)CC1 (stereo not drawn) | -1.61

SMILES | hERG current change (%, negative = inhibition) at 10uM [%]
CCC(C)C1Nc2ccc(C(=O)NCc3ccc4c(c3)OCO4)cc2NC1=O (stereo not drawn) | 11.9
Cc1ccc(C)c2c1cc(C)c1nnc(SCC(=O)N3CCCc4ccccc43)n12 | -14.7
Cc1cc(/C=C2\C(=O)NC(=O)N(c3cccc(F)c3)C2=O)c(C)n1-c1ccc(C(=O)O)c(Cl)c1 | 5.98
COc1ccc(CC(C(=O)Nc2cc(C)ccc2C)/C(N)=N/O)cc1 (stereo not drawn) | 9.2
Cc1ccccc1-c1nc(CN2CCC(C(=O)NCC3CCCO3)CC2)c(C)o1 (stereo not drawn) | -54.5
CN1C(=O)/C(=C/c2ccccc2OCc2ccc(F)cc2)N(C)C1=S | 23.3
CC(NC(=O)Cc1ccc(Br)cc1)c1ccccc1 (stereo not drawn) | 1.05
COc1ccc(CCC(=O)NCc2ccc3c(c2)OCO3)cc1 | -8.84
CCCCCN(C(=O)NC(=O)Nn1cnnc1)S(C)(=O)=O | -3.72
O=C1C2C3C=CC(CC3)C2C(=O)N1/N=C/c1c[nH]c2ccccc12 (stereo not drawn) | 24.4
Cn1cc(Br)c(-c2cccc(N3C(=O)CC(C)(C)CC3=O)c2)n1 | 8.75
COC(=O)[C@H](Cc1ccccc1)NC(=O)N1CCCCC1 | 9.93
O=C(O)CNC(=O)CC1S/C(=N/N=C2/NC(=O)CS2)NC1=O (stereo not drawn) | 21.9
O=C(CN1C(=O)C(=O)c2ccccc21)NC1CCCCC1 | -2.45
CCOc1ccc(-n2c(C)c(C(C)=O)c3cc(OCC(N)=O)ccc32)cc1 | -13.9
Cc1ccc(N(C(=O)c2cnccn2)C(C(=O)NC2CCCCC2)c2ccc(O)cc2)cc1 (stereo not drawn) | -13.3
COc1ccccc1CNC(=O)COC(=O)COc1ccccc1F | -4.34
CC(C)c1nc(C(=O)N2CCc3c([nH]c4ccccc34)C2c2ccccn2)cs1 (stereo not drawn) | 2.79
O=C(COc1cc(Cl)c(Cl)cc1Cl)Nc1cccc(O)c1 | 14.5
Fc1ccc(Cn2cnc3ccccc32)cc1 | -0.316
CN(Cc1cc2ccccc2[nH]c1=O)S(=O)(=O)c1ccccc1 | 8.3
O=c1[nH]n(CCO)c(=O)c2cccnc12 | 7.19
